This note sets out measurements from the antibiotic and cytotoxicity screens of Wong et al. (2023).

Some of the results follow.

In one test the test system is HSkMC. Briefly: cytotoxicity call (relative viability < 0.9). Particulars: 10 µM.
For another test, the system named is HepG2. Briefly: cytotoxicity call (relative viability < 0.9). Particulars: 10 µM.
A further test relates to S. aureus RN4220. The test can be described thus: growth inhibition call (relative growth <= 0.2). Particulars: 50 µM.

Consider `C/C=C1\[C@H](O[C@@H]2O[C@H](CO)[C@@H](O)[C@H](O)[C@H]2O)OC=C(C(=O)OC)[C@H]1CC(=O)OC[C@H]1O[C@@H](OCCc2ccc(O)cc2)[C@H](O)[C@@H](O)[C@@H]1OC(=O)C[C@@H]1C(C(=O)OC)=CO[C@@H](O[C@@H]2O[C@H](CO)[C@@H](O)[C@H](O)[C@H]2O)/C1=C\C`, for which the cytotoxicity call in the test on HSkMC and with HepG2 was “inactive” each time. In the test on S. aureus RN4220, the growth inhibition call was “inactive”.

Turning to `COC(=O)[C@@]12CCC(C)(C)C[C@@H]1[C@@H]1C(=O)C=C3[C@]4(C)C=C(C#N)C(=O)C(C)(C)[C@H]4CC[C@]3(C)[C@@]1(C)CC2`, the cytotoxicity call in the test on HSkMC (human skeletal muscle cells) and with HepG2 was “active” throughout. In the test on S. aureus RN4220, the growth inhibition call is “inactive”.

For `COc1ccc(CN(C)C[C@H]2OCCCC[C@@H](C)Oc3ccc(NC(=O)C4CCCCC4)cc3C(=O)N([C@H](C)CO)C[C@@H]2C)cc1`, the cytotoxicity call with HSkMC and in the test with HepG2 was “inactive” in each case. In the test on S. aureus RN4220, the growth inhibition call is “inactive”.

As for `Cc1ccc(NC(=O)n2c3ccccc3c3ccccc32)cc1`, the cytotoxicity call with HSkMC is “inactive”. Besides, the cytotoxicity call with HepG2 is “active”. For the same compound, in the test on S. aureus RN4220, the growth inhibition call is “inactive”.

With `O=C(C[C@H]1CC[C@@H]2[C@H](COC[C@H](O)CN2S(=O)(=O)c2ccc(F)cc2)O1)N[C@@H]1CCN(Cc2ccccc2)C1`, the cytotoxicity call with HSkMC and with HepG2 was “inactive” each time. Also, in the test with S. aureus RN4220, the growth inhibition call was “inactive”.

In the case of `C[C@H](CO)N1C[C@H](C)[C@H](CN(C)S(=O)(=O)c2ccc(Cl)cc2)OCc2cn(nn2)CCCC1=O`, the cytotoxicity call in the test with HSkMC and in the test with HepG2 was “inactive” throughout. In addition, the growth inhibition call in the test with S. aureus RN4220 is “inactive”.

Regarding `O=C(C[C@H]1C=C[C@H](NC(=O)c2ccncc2)[C@@H](CO)O1)NCc1ccncn1`, the cytotoxicity call in the test with HSkMC and in the test on HepG2 was “inactive” each time. Besides, the growth inhibition call in the test on S. aureus RN4220 is “inactive”.

As for `COc1cc(N2CCO[C@]3(COCCN(CCN(C)C)C3)C2)ncn1`, the cytotoxicity call in the test with HSkMC and in the test on HepG2 was “inactive” in each case. For the same compound, the growth inhibition call in the test on S. aureus RN4220 is “inactive”.

For the compound `COCC#Cc1ccc([C@H]2[C@@H](CO)N3C(=O)CN(C(=O)c4ccncc4)C[C@@H]23)cc1`, the cytotoxicity call with HSkMC and in the test on HepG2 was “inactive” throughout. The growth inhibition call in the test on S. aureus RN4220 was “inactive”.
